What was measured:
[1] = tested on: NEN cells (NCI-H727 and PNET BON1); experiment: Annexin V / propidium iodide FACS analysis of apoptosis and necrosis; format: cell-based, human; conditions: relative to untreated cells
Source text: In the dot plots, each dot represents a single cell; apoptotic cells are located above the horizontal line of the quadrats, necrotic cells are located right to the vertical line of the quadrants.
For apoptosis evaluation cells were stained with-APC tagged Annexin V and Propidium Iodide (PI) according to the manufacturer's instructions (BioLegend, San Diego, CA, USA).

[2] = tested on: NCI-H727 and PNET BON-1 cells
[3] = tested on: NEN cell lines PNET BON1 and NCI-H727; experiment: WST-1 viability assay of NEN cell lines
[4] = tested on: lung NCI-H727 tumor xenograft; experiment: Subcutaneous NEN xenograft tumor model; conditions: day 23; IP injections; control PBS reached 400%

Cc1c(C(=O)NN2CCCCC2)nn(-c2ccc(Cl)cc2Cl)c1-c1ccc(I)cc1 [AM251]
increase of NENs apoptosis ([1]; 10 uM and 30 uM): more than 2 fold
reduction of the percentage of necrotic cells [1]: 2 fold
effect on cell proliferation (CFSE generations) ([2]; 48 hours of treatment, 6 to 8 generations): causes cell arrest
cell cycle phase ([2]; NCI-H727 and PNET BON-1 cells, FACS): transition from S phase and G2 M phase to G0/G1 phase

COc1ccc2c(c1)c(CC(=O)N1CCOCC1)c(C)n2C(=O)c1ccc(Cl)cc1 [BML-190]
effect on viability of the cells ([3]; antagonist alone, cells not exposed to cannabis extract): did not reduce the viability of the cells

CO[C@H]1C[C@@H]2CC[C@@H](C)[C@@](O)(O2)C(=O)C(=O)N2CCCC[C@H]2C(=O)O[C@H]([C@H](C)C[C@@H]2CC[C@@H](OCCO)[C@H](OC)C2)CC(=O)[C@H](C)/C=C(\C)[C@@H](O)[C@@H](OC)C(=O)[C@H](C)C[C@H](C)/C=C/C=C/C=C/1C [Everolimus, everolimus]
effect on NEN cell viability ([3]; Everolimus alone at 20 nM and 50 nM, over 72 hrs, WST-1): did not affect NEN cell viability
tumor volume versus initial tumor size (100% at baseline) [4]: 200%
